# Data published in article PMC12820563, “FoxP3 forms a head-to-head dimer in vivo and stabilizes its multimerization on adjacent microsatellites”.
# The list shows a part of the results.
# Molecular target: T1, MBP-FoxP1dN (Mus musculus, UniProt P58462 326-579)
# T1 sequence: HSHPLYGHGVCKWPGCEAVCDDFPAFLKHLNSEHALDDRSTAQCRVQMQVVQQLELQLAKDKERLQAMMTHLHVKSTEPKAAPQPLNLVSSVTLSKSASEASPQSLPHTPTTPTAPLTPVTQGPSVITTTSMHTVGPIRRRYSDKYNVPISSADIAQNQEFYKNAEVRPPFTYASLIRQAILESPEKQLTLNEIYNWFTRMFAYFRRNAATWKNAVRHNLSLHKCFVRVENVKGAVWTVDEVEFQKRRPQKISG
# Experiment: PD-seq (MBP pull-down with sequencing); 20 mM Tris-HCl pH 7.5, 100 mM NaCl, 1.5 mM MgCl2, 0.4 uM protein, 0.1 uM dsDNA library, 30 min, room temperature, amylose pull-down; high values mean tight binding
# Conditions: protein: recombinant; tags: His6-MBP; chain copies: 2; dsDNA, one strand shown
# How it was run: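 Amylose resin was used to capture complexes formed during 30 min at room temperature in Tris pH 7.5 buffer with NaCl and MgCl2 between 0.4 µM His6-MBP-tagged mouse FoxP3 or FoxP1 fragment lacking the N-terminus, expressed in E. coli, and 0.1 µM Klenow-filled double-stranded degenerate DNA library. After three washes, the DNA was released with proteinase K, barcoded by PCR and sequenced on Illumina. Binding is pooled-replicate reads-per-million enrichment, pull-down over input.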
row,Sequence,binding signal
1,GATGATTGTTCTCCCAGCTGATGAATTAGAACCGTCGAGTAAACAAATTTTCCTAATCTTTCTGTTCAAGCGCCATCTAC,0.868 RPM ratio (pull-down/input)
2,GATGATTGTTCTCCCAGCTGATGAATTTTCTACCTCGAGTAAACAAATTTTCCTAATCTTTCTGTTCAAGCGCCATCTAC,0.89 RPM ratio (pull-down/input)
3,GATGATTGTTCTCCCAGCTGATGAATTTATGTATTCGAGTAAACAAATTTTCCTAATCTTTCTGTTCAAGCGCCATCTAC,1.68 RPM ratio (pull-down/input)
4,GATGATTGTTCTCCCAGCTGATGAATTTTTAGTTTCGAGTAAACAAATTTTCCTAATCTTTCTGTTCAAGCGCCATCTAC,1.05 RPM ratio (pull-down/input)
5,GATGATTGTTCTCCCAGCTGATGAATTCGACCTCTCGAGTAAACAAATTTTCCTAATCTTTCTGTTCAAGCGCCATCTAC,0.698 RPM ratio (pull-down/input)
6,GATGATTGTTCTCCCAGCTGATGAATTTTGTCCGTCGAGTAAACAAATTTTCCTAATCTTTCTGTTCAAGCGCCATCTAC,0.953 RPM ratio (pull-down/input)
7,GATGATTGTTCTCCCAGCTGATGAATTTGAGTAGTCGAGTAAACAAATTTTCCTAATCTTTCTGTTCAAGCGCCATCTAC,0.875 RPM ratio (pull-down/input)
8,GATGATTGTTCTCCCAGCTGATGAATTATAGTGCTCGAGTAAACAAATTTTCCTAATCTTTCTGTTCAAGCGCCATCTAC,0.938 RPM ratio (pull-down/input)
9,GATGATTGTTCTCCCAGCTGATGAATTCAGGAACTCGAGTAAACAAATTTTCCTAATCTTTCTGTTCAAGCGCCATCTAC,0.855 RPM ratio (pull-down/input)
10,GATGATTGTTCTCCCAGCTGATGAATTCATATCATCGAGTAAACAAATTTTCCTAATCTTTCTGTTCAAGCGCCATCTAC,1.11 RPM ratio (pull-down/input)
11,GATGATTGTTCTCCCAGCTGATGAATTCCAAAGGTCGAGTAAACAAATTTTCCTAATCTTTCTGTTCAAGCGCCATCTAC,0.761 RPM ratio (pull-down/input)
12,GATGATTGTTCTCCCAGCTGATGAATTCATGATGTCGAGTAAACAAATTTTCCTAATCTTTCTGTTCAAGCGCCATCTAC,1.21 RPM ratio (pull-down/input)
13,GATGATTGTTCTCCCAGCTGATGAATTCTGGGTCTCGAGTAAACAAATTTTCCTAATCTTTCTGTTCAAGCGCCATCTAC,0.744 RPM ratio (pull-down/input)
14,GATGATTGTTCTCCCAGCTGATGAATTTCACTAATCGAGTAAACAAATTTTCCTAATCTTTCTGTTCAAGCGCCATCTAC,0.997 RPM ratio (pull-down/input)
15,GATGATTGTTCTCCCAGCTGATGAATTGATCCCATCGAGTAAACAAATTTTCCTAATCTTTCTGTTCAAGCGCCATCTAC,1.02 RPM ratio (pull-down/input)
16,GATGATTGTTCTCCCAGCTGATGAATTTTGCAATTCGAGTAAACAAATTTTCCTAATCTTTCTGTTCAAGCGCCATCTAC,1.13 RPM ratio (pull-down/input)

row,Sequence,binding signal
1,GATGATTGTTCTCCCAGCTGATGAATTTGACACCTCGAGTAAACAAATTTTCCTAATCTTTCTGTTCAAGCGCCATCTAC,0.871 RPM ratio (pull-down/input)
2,GATGATTGTTCTCCCAGCTGATGAATTAAGCAGGTCGAGTAAACAAATTTTCCTAATCTTTCTGTTCAAGCGCCATCTAC,0.832 RPM ratio (pull-down/input)
3,GATGATTGTTCTCCCAGCTGATGAATTGACGAGGTCGAGTAAACAAATTTTCCTAATCTTTCTGTTCAAGCGCCATCTAC,0.902 RPM ratio (pull-down/input)
4,GATGATTGTTCTCCCAGCTGATGAATTCTTGTATTCGAGTAAACAAATTTTCCTAATCTTTCTGTTCAAGCGCCATCTAC,1.72 RPM ratio (pull-down/input)
5,GATGATTGTTCTCCCAGCTGATGAATTAAACTAGTCGAGTAAACAAATTTTCCTAATCTTTCTGTTCAAGCGCCATCTAC,0.926 RPM ratio (pull-down/input)
6,GATGATTGTTCTCCCAGCTGATGAATTGACGACTTCGAGTAAACAAATTTTCCTAATCTTTCTGTTCAAGCGCCATCTAC,1.06 RPM ratio (pull-down/input)
7,GATGATTGTTCTCCCAGCTGATGAATTAAGAGTCTCGAGTAAACAAATTTTCCTAATCTTTCTGTTCAAGCGCCATCTAC,0.792 RPM ratio (pull-down/input)
8,GATGATTGTTCTCCCAGCTGATGAATTATATATATCGAGTAAACAAATTTTCCTAATCTTTCTGTTCAAGCGCCATCTAC,1.16 RPM ratio (pull-down/input)
9,GATGATTGTTCTCCCAGCTGATGAATTGCGTGAATCGAGTAAACAAATTTTCCTAATCTTTCTGTTCAAGCGCCATCTAC,1.15 RPM ratio (pull-down/input)
10,GATGATTGTTCTCCCAGCTGATGAATTAGTCTCCTCGAGTAAACAAATTTTCCTAATCTTTCTGTTCAAGCGCCATCTAC,0.847 RPM ratio (pull-down/input)
11,GATGATTGTTCTCCCAGCTGATGAATTAGAGAAATCGAGTAAACAAATTTTCCTAATCTTTCTGTTCAAGCGCCATCTAC,1.09 RPM ratio (pull-down/input)
12,GATGATTGTTCTCCCAGCTGATGAATTACACACATCGAGTAAACAAATTTTCCTAATCTTTCTGTTCAAGCGCCATCTAC,1.48 RPM ratio (pull-down/input)
13,GATGATTGTTCTCCCAGCTGATGAATTATATCGATCGAGTAAACAAATTTTCCTAATCTTTCTGTTCAAGCGCCATCTAC,0.956 RPM ratio (pull-down/input)
14,GATGATTGTTCTCCCAGCTGATGAATTCACCGACTCGAGTAAACAAATTTTCCTAATCTTTCTGTTCAAGCGCCATCTAC,0.825 RPM ratio (pull-down/input)
15,GATGATTGTTCTCCCAGCTGATGAATTGCGGTGGTCGAGTAAACAAATTTTCCTAATCTTTCTGTTCAAGCGCCATCTAC,0.882 RPM ratio (pull-down/input)
16,GATGATTGTTCTCCCAGCTGATGAATTCGCCGCGTCGAGTAAACAAATTTTCCTAATCTTTCTGTTCAAGCGCCATCTAC,0.875 RPM ratio (pull-down/input)
